# Test results taken from the supplement of paper PMC12217912.
# This is one part of the list. Sequences were assembled here from the parent chain. Values near 0.05 are background.
# B1: TEV protease; numbered along this chain (parent)
# chain: MGESLFKGPRDYNPISSSICHLTNESDGHTTSLYGIGFGPFIITNKHLFRRNNGTLVVQSLHGVFKVKDTTTLQQHLVDGRDMIIIRMPKDFPPFPQKLKFREPQREERICLVTTNFQTKSMSSMVSDTSCTFPSGDGIFWKHWIQTKDGQCGSPLVSTRDGFIVGIHSASNFTNTNNYFTSVPKNFMELLTNQEAQQWVSGWRLNADSVLWGGHKVFMVKPEEPFQPVKEATQL
# Variants of: B1
# Assay: raw area under fraction-flipped curve 0-4 h after induction (AUC4h, not background-subtracted), DNA-recorder readout of cleavage of the substrate (dimensionless); higher = more cleavage of the substrate by the protease variant
# Conditions: temperature: 34 °C; time window: 0-4 h after rhamnose induction
# Procedure: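 In vivo DNA recorder in E. coli TOP10(DE3) ΔrhaA at 34 °C. Each TEVp single-site mutant (parent TEVp 0) is paired with a single-site variant of the 7-mer TEVs (canonical ENLYFQ|S). The substrate sits between flexible linkers in a Bxb1-sfGFP-TEVs-SsrA fusion, so cleavage stabilises Bxb1 and speeds flipping of a recombination array, read by NGS. The value is the raw area under the fraction-flipped curve over 0-4 h after rhamnose induction (AUC4h), with ≥20 reads per time point. It is not background-subtracted; inactive controls average about 0.047.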
# 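Also: Bxb1 expression induced with 0.2% (w/v) L-rhamnose at OD600 near 0.5, cultures sampled hourly, flipped fraction per protease–substrate barcode pair counted by paired-end Illumina sequencing.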
Variant,area with substrate ENAYFQS,area with substrate ENCYFQS,area with substrate ENIYFQS,area with substrate ENPYFQS,area with substrate ENQYFQS,area with substrate ENRYFQS,area with substrate ENVYFQS,area with substrate ENYYFQS,area with substrate ENDYFQS,area with substrate ENHYFQS,area with substrate ENMYFQS,area with substrate ENNYFQS,area with substrate ENTYFQS,area with substrate ENWYFQS,area with substrate ENEYFQS,area with substrate ENFYFQS,area with substrate ENGYFQS,area with substrate ENKYFQS,area with substrate ENSYFQS
MGESLFKGPRDYNPISSSICHLTNESDGHTTSLYGIGFGPFIITNKHLFRRNNGTLVVQSLHGVFKVKDTTTLQQHLVDGRDMIIIRMPKDFPPFPQKLKFREPQREERICLKTTNFQTKSMSSMVSDTSCTFPSGDGIFWKHWIQTKDGQCGSPLVSTRDGFIVGIHSASNFTNTNNYFTSVPKNFMELLTNQEAQQWVSGWRLNADSVLWGGHKVFMVKPEEPFQPVKEATQL [V113K],0.0543,0.0745,0.0547,0.0542,0.0396,0.0582,0.0532,0.0759,–,–,–,–,–,–,–,–,–,–,–
MGESLFKGPRDYNPISSSICHLTNESDGHTTSLYGIGFGPFIITNKHLFRRNNGTLVVQSLHGVFKVKDTTTLQQHLVDGRDMIIIRMPKDFPPFPQKLQFREPQREERICLVTTNFQTKSMSSMVSDTSCTFPSGDGIFWKHWIQTKDGQCGSPLVSTRDGFIVGIHSASNFTNTNNYFTSVPKNFMELLTNQEAQQWVSGWRLNADSVLWGGHKVFMVKPEEPFQPVKEATQL [K100Q],0.0666,–,0.142,0.0592,0.0568,0.0617,0.0895,–,0.081,0.0626,0.0749,0.0656,0.0535,0.0539,–,–,–,–,–
MGESLFKGPRDYNPISSSICHLTNESDGHTTSLYGIGFGPFIITNKHLFRRNNGTLVVQSLHGVFKVKDTTTLQQHLVDGRDMIIIRMPKDFPPFPQVLKFREPQREERICLVTTNFQTKSMSSMVSDTSCTFPSGDGIFWKHWIQTKDGQCGSPLVSTRDGFIVGIHSASNFTNTNNYFTSVPKNFMELLTNQEAQQWVSGWRLNADSVLWGGHKVFMVKPEEPFQPVKEATQL [K98V],0.0509,0.055,–,0.0508,0.0801,0.0684,0.083,–,0.0708,0.0539,–,–,0.0582,0.0788,0.0506,0.0601,0.0503,0.0481,0.0509
MGESLFKGPRDYNPISSSICHLTNESDGHTTSLYGIGFGPFIITNKHLFRRNNGTLVVQSLHGVFKVKDTTTLQQHLVDGRDMIIIRMPKDFPPFPQRLKFREPQREERICLVTTNFQTKSMSSMVSDTSCTFPSGDGIFWKHWIQTKDGQCGSPLVSTRDGFIVGIHSASNFTNTNNYFTSVPKNFMELLTNQEAQQWVSGWRLNADSVLWGGHKVFMVKPEEPFQPVKEATQL [K98R],0.0631,0.0821,–,–,0.0623,0.0607,0.0712,–,–,0.0783,–,0.0641,0.0622,–,0.0568,0.062,–,0.0447,0.0573
MGESLFKGPRDYNPISSSICHLTNESDGHTTSLYGIGFGPFIITNKHLFRRNNGTLVVQSLHGVFKVKDTTTLQQHLVDGRDMIIIRMPKDFPPFPQKLKFREPQREETICLVTTNFQTKSMSSMVSDTSCTFPSGDGIFWKHWIQTKDGQCGSPLVSTRDGFIVGIHSASNFTNTNNYFTSVPKNFMELLTNQEAQQWVSGWRLNADSVLWGGHKVFMVKPEEPFQPVKEATQL [R109T],0.0553,0.0566,–,0.0462,0.0635,0.0506,–,–,0.0662,0.0632,–,0.102,0.0414,–,0.0643,0.0535,–,–,0.0593
MGESLFKGPRDYNPISSSICHLTNESDGHTTSLYGIGFGPFIITNKHLFRRNNGTLVVQSLHGVFKVKDTTTLQQHLVDGRDMIIIRMPKDFPPFPQKLKIREPQREERICLVTTNFQTKSMSSMVSDTSCTFPSGDGIFWKHWIQTKDGQCGSPLVSTRDGFIVGIHSASNFTNTNNYFTSVPKNFMELLTNQEAQQWVSGWRLNADSVLWGGHKVFMVKPEEPFQPVKEATQL [F101I],0.0594,0.0654,0.0674,–,–,–,–,–,0.0543,–,–,–,–,0.0707,–,–,–,0.0577,–
MGESLFKGPRDYNPISSSICHLTNESDGHTTSLYGIGFGPFIITNKHLFRRNNGTLVVQSLHGVFKVKDTTTLQQHLVDGRDMIIIRMPKDFPPFPQKLKSREPQREERICLVTTNFQTKSMSSMVSDTSCTFPSGDGIFWKHWIQTKDGQCGSPLVSTRDGFIVGIHSASNFTNTNNYFTSVPKNFMELLTNQEAQQWVSGWRLNADSVLWGGHKVFMVKPEEPFQPVKEATQL [F101S],0.0479,0.0857,–,–,–,0.0653,–,–,0.05,–,–,–,–,–,–,0.0284,–,0.0348,0.066
MGESLFKGPRDYNPISSSICHLTNESDGHTTSLYGIGFGPFIITNKHLFRRNNGTLVVQSLHGVFKVKDTTTLQQHLVDGRDMIIIRMPKDFPPFPQKLKEREPQREERICLVTTNFQTKSMSSMVSDTSCTFPSGDGIFWKHWIQTKDGQCGSPLVSTRDGFIVGIHSASNFTNTNNYFTSVPKNFMELLTNQEAQQWVSGWRLNADSVLWGGHKVFMVKPEEPFQPVKEATQL [F101E],0.049,–,–,–,0.0569,–,0.0412,0.0408,–,0.0445,0.0532,–,–,–,0.056,0.0472,–,–,0.0461
MGESLFKGPRDYNPISSSICHLTNESDGHTTSLYGIGFGPFIITNKHLFRRNNGTLVVQSLHGVFKVKDTTTLQQHLVDGRDMIIIRMPKDFPPFPWKLKFREPQREERICLVTTNFQTKSMSSMVSDTSCTFPSGDGIFWKHWIQTKDGQCGSPLVSTRDGFIVGIHSASNFTNTNNYFTSVPKNFMELLTNQEAQQWVSGWRLNADSVLWGGHKVFMVKPEEPFQPVKEATQL [Q97W],0.0537,0.0635,–,–,0.0578,–,–,–,0.0849,0.0503,–,0.075,0.0629,–,0.0726,–,–,–,0.0523
MGESLFKGPRDYNPISSSICHLTNESDGHTTSLYGIGFGPFIITNKHLFRRNNGTLVVQSLHGVFKVKDTTTLQQHLVDGRDMIIIRMPKDFPPFPNKLKFREPQREERICLVTTNFQTKSMSSMVSDTSCTFPSGDGIFWKHWIQTKDGQCGSPLVSTRDGFIVGIHSASNFTNTNNYFTSVPKNFMELLTNQEAQQWVSGWRLNADSVLWGGHKVFMVKPEEPFQPVKEATQL [Q97N],0.0708,–,0.108,–,0.0626,–,–,–,–,0.0256,–,–,–,–,–,–,0.0562,–,0.0628
